Source: a collection of fitness landscapes (doi:10.1126/science.1257360)
The list shows a part of the results.

B1: PhoQ; a variant is named by its letters at X, in order, P23837 (parent)
chain: MKKLLRLFFPLSLRVRFLLATAAVVLVLSLAYGMVALIGYSVSFDKTTFRLLRGESNLFYTLAKWENNKLHVELPENIDKQSPTMTLIYDENGQLLWAQRDVPWLMKMIQPDWLKSNGFHEIEADVNDTSLLLSGDHSIQQQLQEVREDDDDAEMTHSVAVNVYPATSRMPKLTIVVVDTIPVELKSSYMVWSWFIYVLSANLLLVIPLLWVAAWWSLRPIEALAKEVRELEEHNRELLNPATTRELTSLVRNLNRLLKSERERYDKYRTTLTDLTHSLKTPLXXLQXXLRSLRSEKMSVSDAEPVMLEQISRISQQIGYYLHRASMRGGTLLSRELHPVAPLLDNLTSALNKVYQRKGVNISLDISPEISFVGEQNDFVEVMGNVLDNACKYCLEFVEISARQTDEHLYIVVEDDGPGIPLSKREVIFDRGQRVDTLRPGQGVGLAVAREITEQYEGKIVAGESMLGGARMEVIFGRQHSAPKDE

Variants of: B1
Assay: enrichment ratio after two sorts for PhoP signalling (ratio (wild type AVST 3.29)); higher = more functional
Settings: with PhoP (E. coli)

Variant | enrichment ratio
NTHT | ≤ 0.25
MFTG | ≤ 0.25
ILNV | ≤ 0.25
YWCH | ≤ 0.25
GVML | 13.4
GWTK | ≤ 0.25
KDLS | ≤ 0.25
MKFD | ≤ 0.25
LGRW | ≤ 0.25
NVGR | ≤ 0.25
WIKS | ≤ 0.25
QNVH | ≤ 0.25
FKRE | ≤ 0.25
KCEF | ≤ 0.25
SMHH | ≤ 0.25
PVND | ≤ 0.25
NFGS | ≤ 0.25
MNMF | ≤ 0.25
IKII | ≤ 0.25
LMGL | ≤ 0.25
PAWC | ≤ 0.25
VCQF | ≤ 0.25
EMAW | ≤ 0.25
SLCE | 4.84
RRRI | ≤ 0.25
FMWS | ≤ 0.25

Variant | enrichment ratio
RDCF | ≤ 0.25
KSAN | ≤ 0.25
DFEM | ≤ 0.25
IQSP | ≤ 0.25
YTGC | ≤ 0.25
IDHW | ≤ 0.25
STYV | ≤ 0.25
HLFG | ≤ 0.25
LHPC | ≤ 0.25
STTW | 2.13
WLNW | ≤ 0.25
KSQG | ≤ 0.25
ITNV | ≤ 0.25
RNTR | ≤ 0.25
FPNM | ≤ 0.25
DCFK | ≤ 0.25
TDDR | ≤ 0.25
MVIR | ≤ 0.25
RMES | ≤ 0.25
MVCQ | ≤ 0.25
YRTT | ≤ 0.25
ADGQ | ≤ 0.25
SCLC | 12.4
FPAE | ≤ 0.25
VTAL | 3.44
SEKG | ≤ 0.25

Variant | enrichment ratio
TQLS | 17.6
DKKW | ≤ 0.25
TSWL | 9.64
RHSS | ≤ 0.25
PQLF | ≤ 0.25
QRVC | ≤ 0.25
QSRF | ≤ 0.25
MQHR | ≤ 0.25
EKIG | ≤ 0.25
FNFQ | ≤ 0.25
FPKW | ≤ 0.25
RRFL | ≤ 0.25
AAPS | ≤ 0.25
WSCF | ≤ 0.25
TDCF | 5.11
VHVH | ≤ 0.25
LCVK | ≤ 0.25
IADV | ≤ 0.25
NYNC | ≤ 0.25
GNWY | ≤ 0.25
DTFT | ≤ 0.25
TGWT | 10.5
NCHH | ≤ 0.25
PQRC | ≤ 0.25
EFDG | ≤ 0.25
AVQS | ≤ 0.25

Variant | enrichment ratio
IQCW | ≤ 0.25
GVMN | ≤ 0.25
TVPY | ≤ 0.25
AHVF | ≤ 0.25
FSKS | ≤ 0.25
ALPC | ≤ 0.25
LVTC | ≤ 0.25
AGSF | 9.77
NPDW | ≤ 0.25
KAQF | ≤ 0.25
WMNC | ≤ 0.25
PRKI | ≤ 0.25
HHDH | ≤ 0.25
QMNQ | 8.17
QGYL | 9.62
INLS | 1.62
HSPM | ≤ 0.25
MKVP | ≤ 0.25
LCCH | ≤ 0.25
GGLI | 11.9
EQTN | ≤ 0.25
VNQS | ≤ 0.25
NQFQ | ≤ 0.25
HTLS | ≤ 0.25
TEFG | 19
HSAD | ≤ 0.25

Variant | enrichment ratio
RWPQ | ≤ 0.25
YKPW | 1.28
APSD | ≤ 0.25
GFGA | ≤ 0.25
YWMD | ≤ 0.25
NELM | ≤ 0.25
YYTE | ≤ 0.25
HWFE | ≤ 0.25
RRWF | ≤ 0.25
IWYF | ≤ 0.25
YCGH | ≤ 0.25
VPMQ | ≤ 0.25
ELTN | ≤ 0.25
IFNQ | ≤ 0.25
WECS | ≤ 0.25
SKLK | ≤ 0.25
LGQW | ≤ 0.25
SSRT | ≤ 0.25
VMHM | ≤ 0.25
ALIW | ≤ 0.25
FYMW | ≤ 0.25
EMVT | ≤ 0.25
FCCC | ≤ 0.25
DTQC | ≤ 0.25
HPYW | ≤ 0.25
QDPF | ≤ 0.25

Variant | enrichment ratio
NIYV | ≤ 0.25
MYFA | ≤ 0.25
MTYT | ≤ 0.25
SEAY | 5.88
MELE | ≤ 0.25
ECNW | ≤ 0.25
DGWD | ≤ 0.25
KMNF | ≤ 0.25
REIH | 1.52
CMVF | ≤ 0.25
WRPD | ≤ 0.25
PWHP | ≤ 0.25
LADL | ≤ 0.25
NDFN | ≤ 0.25
LINQ | ≤ 0.25
IYTM | ≤ 0.25
RLNF | ≤ 0.25
KRPN | ≤ 0.25
TAIK | ≤ 0.25
HSTA | ≤ 0.25
FIFT | ≤ 0.25
ETDI | ≤ 0.25
FNSL | ≤ 0.25
